Some of the results follow.
Each compound was assayed on S. aureus RN4220 (assay: growth inhibition call (relative growth <= 0.2)). Settings: 50 µM.

Growth inhibition call, inactive:
C[C@H]1CN([C@@H](C)CO)C(=O)Cc2cc(NC(=O)Nc3ccc4c(c3)OCO4)ccc2O[C@@H]1CN(C)Cc1ccc(C(F)(F)F)cc1
C[C@H]1CN([C@@H](C)CO)C(=O)c2cccc(NC(=O)Nc3ccc4c(c3)OCO4)c2O[C@@H]1CN(C)Cc1ccc(Cl)c(Cl)c1
O=C(C[C@@H]1C=C[C@@H](NS(=O)(=O)c2ccccc2)[C@H](CO)O1)NCc1ccncn1
C[C@@H]1CN([C@H](C)CO)C(=O)Cc2cc(NS(=O)(=O)c3cn(C)cn3)ccc2O[C@H]1CN(C)Cc1ccc(C(=O)Nc2ccccc2N)cc1
COc1ccc2c3c(n(c2c1)C)[C@@H](CO)N(Cc1cc(cc(c1)OC)OC)C[C@]13CN(C1)S(=O)(=O)c1cn(cn1)C
C[C@H]1CN([C@@H](C)CO)C(=O)c2cccc(NC(=O)Nc3ccc(F)cc3)c2O[C@@H]1CN(C)Cc1ccc(Cl)c(Cl)c1
C[C@@H]1CN([C@H](C)CO)C(=O)Cc2cc(NC(=O)Cn3cnnn3)ccc2O[C@@H]1CN(C)Cc1ccc(C(=O)Nc2ccccc2N)cc1
CNC(=O)C[C@H]1CC[C@@H]2[C@H](COC[C@H](O)CN2C(=O)Nc2cccc(OC)c2)O1
C[C@H]1CN([C@@H](C)CO)C(=O)c2cccc(NC(=O)c3ccc(-c4nccs4)cc3)c2O[C@H]1CN(C)C(=O)Nc1ccc(C(F)(F)F)cc1
Cc1noc(C)c1S(=O)(=O)Nc1ccc2c(c1)CC(=O)N([C@@H](C)CO)C[C@@H](C)[C@@H](CN(C)C(=O)NC1CCCCC1)O2

Source: the antibiotic and cytotoxicity screens of Wong et al. (2023)
